Among all 360,000 compounds or so, about 6,000 (1.7%) were called active. Not shown: some 8% with an inconclusive outcome. Calls come from the whole dose curve; as a rule, active = well fitted cell-killing curve with a large enough effect; inconclusive = small, poorly fitted or top-dose-only effect, or effect the other way; inactive = flat fitted curve, though single readings scatter. The entries are a selection whose mix differs from that of the whole data set. A structure can be active in one record and inactive in another.
Experiment: qHTS for induction of synthetic lethality in tumor cells producing 2HG: qHTS for the HT-1080-NT fibrosarcoma cell line; note: nearly all actives have a fitted effect of over 55% in size
Conditions: HT-1080-NT fibrosarcoma viability, CellTiter-Glo ATP luminescence, 48 h; series mostly up to 46.1 µM; activity, negative = less viability: at the top concentration
From the text: Unbiased genomic sequencing for 22 glioma genomes found recurrent mutation of IDH1 on chromosome 2q33, a gene encoding the cytosolic isoform of IDH1 associated with the tricarboxylic acid cycle (TCA) that catalyzes the oxidative decarboxylation of isocitrate, yielding alpha-ketoglutarate and CO2 via NADP+ to NADPH conversion. Subsequent studies confirmed the recurrent IDH mutations in up to 70% of secondary gliomas and in 10% of AML cases. In addition, the somatic mutation of cancer-associated IDH1 is a point mutation resulting in various amino-acid substituents at Arginine132 (IDH1 R132), a key residue found in the enzyme's active site that when mutated, results in the loss-of-function in metabolizing isocitrate but confers a gain-of-function to produce the oncometabolite 2-hydroxyglutarate (2HG). This in effect defines IDH1 as an oncogene and provides an extraordinary opportunity to discover chemical probes against mutant IDH1 that may translate into much needed new therapies for glioma and AML patients.
This assay aims to perform a synthetic lethal screen for chemical probes specific for 2HG-producing tumor cells using matched paired cell lines (1) HT-1080-NT fibrosarcoma cell line that overproduces 2HG and (2) HT-1080-IDH1KD cell line which has IDH1 expression knocked-down. Desirable compounds are toxic to the NT fibrosarcoma cells but not to the IDH1KD cell line. The data in this AID corresponds to the results of the qHTS against the HT-1080-NT fibrosarcoma cell line.
[1] Dang L, Jin S, Su SM. IDH mutations in glioma and acute myeloid leukemia. Trends of Mol Med. 2010; 16(9): 387-97.
[2] Dang L et al. Cancer-associated IDH1 mutations produce 2-hydroxyglutarate. Nature. 2010; 465(7300):966.
NIH Molecular Libraries Probe Production Centers Network [MLPCN]
NIH Chemical Genomics Center [NCGC]
Assay Submitter (PI): Lenny Dang Ph.D., Agios Pharmaceuticals
Suspensions of trypsinized HT-1080-NT cells were dispensed into white, tissue culture-treated, solid 1536-well plates at 5uL/well (750 cells/well final concentration) in RPMI medium supplemented with 5% FBS. Plates were incubated at 37 degrees C for 2 hours, after which 23 nL of compounds or DMSO were delivered to each well using a pin tool. Plates were then incubated at 37 degrees C for an additional 48 hours. CellTiter-Glo viability reagent (Promega) was dispensed into wells (2.5uL/well) and incubated at room temperature for 10 minutes. The plates were measured on a PerkinElmer ViewLux plate reader for luminescent signal (clear filter, 1 sec exp). DMSO-treated control wells and media-only (no cells) control wells were used to normalize %Activity of identified toxic compounds; DMSO-treated wells corresponded to 0%Activity (100% viability), while media-only controls were used to normalize 100%Activity (0% viability).
Concentration-response curves were fitted to the signals arising from the resulting luminescence. The concentration-effect curves were then classified based on curve quality (r2), response magnitude and degree of measured activity, and compounds were subsequently categorized based on their curve class.
Potency is the fitted concentration of half-maximal effect.

Compound	Potency	activity, negative = less viability
OC[C@H]1O[C@@H](n2cnc3c(NCc4ccco4)ncnc32)[C@H](O)[C@@H]1O	active: 5.8 µM	–
C[C@@H]1C[C@H]2[C@@H]3CCC4=CC(=O)C=C[C@]4(C)[C@@]3(F)[C@@H](O)C[C@]2(C)[C@@]1(O)C(=O)CO	–	inactive: -11.3%
CCC1Nc2ncnc(N3CCCCC3)c2N(Cc2ccc(OC)cc2)C1=O (centres undefined)	–	inactive: 13.1%
O=C(O)/C=C/c1ccc(Cn2ccnc2)cc1	–	inactive: 15.2%
O=C(O)c1ccc(NN=CC2=C(N3CCOCC3)/C(=C/c3ccccc3)CC2)cc1	–	inactive: -21.9%
CC(C)C[C@H]1CN([C@@H](CC(C)C)CN2CCCC2CN2C(=S)NC[C@@H]2Cc2ccc(O)cc2)C(=S)N1CC1CCCCC1 (some centres undefined)	–	inactive: 1.71%
Cc1ccc(Cl)c(Nc2ccccc2C(=O)O)c1Cl	–	inactive: -10.7%
CCN(CC)CCOC(=O)c1ccc(NC(=O)CCCN2C(=O)/C(=C/c3cccs3)SC2=S)cc1	–	inactive: -11.2%
Cc1cc(C)n(-c2nc(NCCN(C)C)c3c4c(sc3n2)COC(C)(C)C4)n1	active: 18.4 µM	–
Cc1noc(C)c1S(=O)(=O)N(C)C[C@H]1OCc2cnnn2CCCC(=O)N([C@H](C)CO)C[C@@H]1C	–	inactive: 5.36%
CN/C(=C\[N+](=O)[O-])NCCSCc1csc(CN(C)C)n1	–	inactive: -5.57%
CCCCNc1c(-c2ccc(-c3cccc(Cl)c3)cc2)nc2ccccn12	–	inactive: -13.8%
OCC[C@H]1C[C@@H](O)[C@H](O)[C@@]2(OCCc3ccccc32)O1	–	inactive: -0.193%
CCOC(=O)c1c(CSCc2ccccc2)oc2ccc(O)c(CN(C)C)c12	active: 20.6 µM	–
COc1c2ccoc2nc2c(OC)c(OCC(O)C(C)(C)O)ccc12 (centres undefined)	–	inactive: -8.29%
CN(C)CCC[C@]1(c2ccc(F)cc2)OCc2cc(C#N)ccc21	–	inactive: -2.07%
CC(Cc1ccccc1)Nc1ncnc2c1ncn2C1OC(CO)C(O)C1O (centres undefined)	–	inactive: -27.2%
O=C(NCc1ccccc1)C1=C[C@H](C2CCCCC2)C[C@H](OCCCCO)O1	–	inactive: -4.16%
O=C1NC[C@H](Cc2ccc(O)cc2)N(C[C@@H]2CCCN2C[C@H](Cc2ccccc2)N2C[C@H](Cc3ccccc3)N(CCc3ccccc3)C(=O)C2=O)C1=O	–	inactive: 14.6%
COc1ccc(/C=C2/CCc3ccccc3C2=O)cc1CN1CCOCC1	–	inactive: 3.14%
C[C@H](CO)N1C[C@H](C)[C@@H](CN(C)CC2CC2)Oc2c(NC(=O)Cc3ccccc3)cccc2C1=O	active: 25.9 µM	–
C[C@]12CCC(=O)C=C1CC[C@@H]1[C@@H]2[C@@H](O)C[C@@]2(C)[C@H]1CC[C@]2(O)C(=O)COC(=O)CCC(=O)O	–	inactive: -26.5%
OCC[C@@H]1C[C@H](O)[C@@H](O)[C@@]2(Cc3ccccc3O2)O1	–	inactive: -10.9%
CC1(C)OC(c2ccccc2)=C/C(=C/C=N/NC(=O)c2ccncc2)O1	–	inactive: -15.2%
COc1cccc(-n2c(SCC(=O)NC3CCCCC3)nc3n[nH]c(C)c3c2=N)c1	active: 14.6 µM	–

Compound	Potency	activity, negative = less viability
Cc1ccc(S(=O)(=O)Nc2c(C)n(C)n(-c3ccccc3)c2=O)cc1	–	inactive: 14.3%
OC[C@H]1OC(O)[C@@H](O)[C@@H](O)[C@@H]1O (some centres undefined)	–	inactive: 5.46%
COC(C[C@@H](O)C[C@@H](O)[C@H](C)OCc1ccccc1)OC	–	inactive: 1.38%
OCC[C@@H]1C[C@@H](O)[C@H](O)[C@]2(OCCCc3ccccc32)O1	–	inactive: 13.1%
CCN(CC)Cc1cc2[nH]c3c4ccc(Cl)cc4ncc3c2cc1OC	–	inactive: -16.9%
O=C(/C=C/c1ccc(Br)cc1)c1ccc(NC(=O)c2ccco2)cc1	–	inactive: 13.1%
O=C(C=Cc1ccccc1Cl)c1ccccc1	active: 23.1 µM	–
CCC(=O)/C=C1/Sc2ccc(OC)cc2N1CCO	–	inactive: 12%
C/C(=N\NC(=O)c1ccc(Br)cc1)C1C(=O)c2ccccc2C1=O	active: 2.24 µM	–
COc1ccc(Nc2c3ccccc3nc3ccccc23)cc1	active: 9.2 µM	–
CCOC(=O)[C@@H]1[C@H]2COc3ccccc3[C@H]2N2C(=O)N(c3ccc(Cl)cc3)C(=O)[C@]12C	–	inactive: -23.4%
CCN1/C(=C2/OC(=S)N(C)C2=O)Sc2ccccc21	–	inactive: -8.81%
Cc1ccccc1NC1=C/C(=N\S(=O)(=O)c2cccs2)c2ccccc2C1=O	active: 5.8 µM	–
COc1ccc2c3c([nH]c2c1)C1CC2C(CC(O)C(OC)C2C(=O)O)CN1CC3 (centres undefined)	–	inactive: -4.25%
C=CCOc1ccc(C(=O)Nc2ccccc2C(=O)NCc2cccnc2)cc1	active: 20.6 µM	–
CCO/C([O-])=N/c1c[n+](N2CCOCC2)no1	–	inactive: 16.6%
CCN(CC)c1ccc(/C=C2\SC(=O)N(C(C)C)C2=O)o1	active: 16.4 µM	–
OCC[C@H]1C[C@@H](O)[C@H](O)[C@]2(OCCCc3ccccc32)O1	–	inactive: 7.74%
OCCN1CCN(CC(O)COc2ccc(C34CC5CC(CC(C5)C3)C4)cc2)CC1 (centres undefined)	active: 18.4 µM	–
CC(=O)OCC(=O)C1(O)CCC2C3CCC4=CC(=O)C=CC4(C)C3C(O)CC21C (centres undefined)	–	inactive: 23.5%
CCCCCCCCCCCCCCCC(O)C(N)CO (centres undefined)	–	inactive: 23.5%
OCC[C@@H]1C[C@H](O)[C@@H](O)[C@]2(OCCc3ccccc32)O1	–	inactive: 9.69%
O=C(/C=C(\O)c1ccc(Cl)cc1)C(=O)NNC(=O)C(O)(c1ccccc1)c1ccccc1	–	inactive: -25.1%
CC1CC2C3CCC4=CC(=O)C=CC4(C)C3(F)C(O)CC2(C)C1(O)C(=O)CO (centres undefined)	–	inactive: 26.1%

Reference: PubChem BioAssay AID686970 (National Center for Advancing Translational Sciences (NCATS), 2013)
